Drawing on PubChem BioAssay AID1240 (Sanford-Burnham Center for Chemical Genomics, 2008), this text covers displacement for 107 molecules.

In all, about 50,000 compounds went through this assay and about 800 (1.6%) showed an effect of 50% or more. The list shows a part of the results.

The target of this assay is Bcl-2-like protein 10 (Homo sapiens) (UniProt Q9HD36). Put plainly: TR3 peptide-Bcl-B binding displacers, biochemical primary FP assay, phenotype converters (AID 1240).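 Note: 0% = Bcl-B with tracer peptide and DMSO and 100% = tracer peptide lacking Bcl-B.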 The settings on record: GST-Bcl-B / FITC-TR3 peptide fluorescence polarization; stronger effect = higher value; compound at 3.75 mg/L.
Sequence of UniProt Q9HD36 (Q9HD36 whole entry, looked up): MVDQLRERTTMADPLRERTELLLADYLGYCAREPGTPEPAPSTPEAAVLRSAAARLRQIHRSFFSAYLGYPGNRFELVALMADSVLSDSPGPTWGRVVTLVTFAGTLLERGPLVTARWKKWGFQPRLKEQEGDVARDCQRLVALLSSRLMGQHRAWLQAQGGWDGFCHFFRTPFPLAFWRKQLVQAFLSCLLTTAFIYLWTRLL
For `CC(C)CC(=O)NS(=O)(=O)c1ccc(NC(=O)c2cccc(Br)c2)cc1`, the displacement was 12.4%.
The result for `CCN(CC)c1ccc(/C=N\NC(=O)c2cc(C(C)(C)C)[nH]n2)cc1` reads 2.8%; that for `COc1ccccc1C(=O)NN1C(=O)/C(=C/c2ccccc2Cl)SC1=S`, 12.4%.
Under `COc1cc(/C=c2\sc3nc4ccccc4n3c2=O)ccc1OCCOc1ccc(C(C)(C)C)cc1` stands 13.9%; under `O=C1C(=O)c2ccccc2C(Cl)=C1Cl`, 4.5%.
As for `O=S(=O)(Nc1ccccn1)c1cccc(S(=O)(=O)c2ccc(Br)cc2)c1`, the displacement was -3.6%.
The result for `Nc1ccc(-c2nc3cc(Cl)ccc3o2)c(Cl)c1` reads -2.8%.
For the molecule `O=C(c1cc2n(n1)C(C(F)(F)F)CC(c1ccc(F)cc1)N2)N1CCCC1` (configuration not stated), the displacement was 1.3%.
The result for `CC(=O)NS(=O)(=O)c1ccc(NS(=O)(=O)c2ccc(Br)cc2)cc1` reads 6.5%; that for `CN(C)c1ccc(/C=N/Nc2cc(N3CCOCC3)ncn2)cc1`, -14.2%; that for `O=C(NNC(=O)c1cccc(Cl)c1)c1cccnc1`, -5.2%.
The result for `COc1ccccc1/C=N/NC(=O)CSc1nc(C)cc(C)n1` reads -0.9%.
The result for `Cc1ccc(S(=O)(=O)NCCCNc2ccc([N+](=O)[O-])cc2)cc1` reads 7.1%; that for `Cc1[nH]c2ccccc2c1/C=N/NC(=O)c1cccc([N+](=O)[O-])c1`, 0.7%.
Turning to `Cc1ccc(-n2nc3cc(C)c(NC(=O)c4cccnc4)cc3n2)cc1`, the displacement is -2.2%.
With `O=C(/C=C/c1ccco1)Nc1ccc(-c2nc3ccccc3s2)c(O)c1`, the displacement is -33.1%.
In the case of `Cc1c(NC(=O)c2cccs2)cccc1[N+](=O)[O-]`, the displacement came to 9.2%.
As for `Cc1ccc(OCC(=O)Nc2ccc3c(c2)OCCO3)c(Br)c1`, the displacement is 9.5%.
Under `CC(=O)NC(c1ccc(Cl)cc1)c1c(O)ccc2ccccc12` (configuration not stated) stands -11.5%; under `CCCS(=O)(=O)C(=C(Nc1ccc(OC)cc1)Nc1ccc(OC)cc1)S(=O)(=O)CCC`, 15%; under `O=C(Nc1ccc(NC(=O)c2cccc3ccccc23)cc1)c1ccc(Br)cc1`, 7%.
Under `O=C(/C=C/c1ccc(OCc2ccccc2)cc1)c1ccc(Cl)cc1` stands 5.4%; under `COC(=O)c1ccccc1NC(=O)CSc1ncn[nH]1`, 10.1%; under `COC(=O)c1cc(C(=O)Nc2ccc(OC)cc2OC)cc([N+](=O)[O-])c1`, 5.9%.
Under `COc1ccc(Cl)cc1C(=O)Nc1ccc(C)cc1C` stands 10.1%.
On to `CCOC(=O)c1c(NC(=S)NC(=O)c2ccc(F)cc2)sc2c1CCCCC2`, for which the displacement turned out to be 14.6%.
The result for `Cc1ccc2nc(N/N=C\c3ccc([N+](=O)[O-])o3)nc(-c3ccccc3)c2c1` reads 32.7%; that for `COc1cc(NC(=O)c2cnn3c(C(F)(F)F)cc(-c4cccs4)nc23)c(OC)cc1Cl`, 3.8%.
Under `COc1ccc(C(=O)N2CCN(Cc3cccc4ccccc34)CC2)cc1OC` stands -5.2%; under `O=C(CC1c2ccccc2Oc2ccccc21)NCCOc1ccccc1`, 15.9%; under `COc1cc(OC)cc(C(=O)N2CCN(Cc3ccccc3OC)CC2)c1`, 6.3%.
Under `CSCCC(N=C1NC(C)(C)Cc2c1ccc1ccccc21)C(=O)O` (configuration not stated) stands -7.1%; under `CC(=O)CC1[C@@]2(C)CCCC(C)(C)C2CC[C@@]1(C)O` (some centres not stated), -3.5%.
`CC1CCCC(C)N1C(=O)c1nn2c(c1Cl)NC(c1cccs1)CC2C(F)(F)F` (configuration not stated): the displacement was -0.6%.
Under `CC1=NN(c2cccc(C(=O)O)c2)C(=O)/C1=C\c1ccc(-c2cc([N+](=O)[O-])ccc2C)o1` stands 32.4%.
The result for `COC(=O)c1ccc(Oc2ccc(/C=C3/SC(=S)N(C)C3=O)cc2OC)c([N+](=O)[O-])c1` reads 7.2%; that for `CCC(=O)n1/c(=N/C(=N)N)nc(C)c2ccc(C)cc21`, -2.6%.
Under `O=C(Nc1c[nH]c(=O)[nH]c1=O)c1ccc(-c2ccccc2)cc1` stands 5%; under `O=C(CSc1nc2ccccc2c(=O)n1-c1ccccc1)c1cc(Cl)sc1Cl`, 5%; under `NC(=O)NC(c1ccccc1)c1coc2ccccc12` (configuration not stated), 28.4%.
Take `O=C(Nc1ccccc1C(=O)NCc1ccco1)c1ccco1`: the displacement is -18.9%.
Turning to `S=C(Nc1ccccc1)N1CCN(C(c2ccccc2)c2ccccc2)CC1`, the displacement came out at 4.6%.
In the case of `O=C(Nc1ccc(OCc2ccccc2)cc1)c1ccccc1Br`, the displacement worked out at 14.1%.
Take `COc1cc(C2NC(=S)NC(C)=C2C(=O)Nc2cccc(Cl)c2)ccc1O` (configuration not stated): the displacement was found to be 18.1%.
For the molecule `CCN(CC)c1ccc(N2C(=O)/C(=C/c3cc(OC)c(OC)c(OC)c3)SC2=S)cc1`, the displacement turned out to be 1.6%.
Turning to `COc1ccc(NC(=O)CSc2nnnn2-c2ccccc2)c([N+](=O)[O-])c1`, the displacement is 3.2%.
Under `CC1=C(C(=O)Nc2ccccc2)C(c2ccccc2)n2c(s/c(=C/c3ccc(F)cc3)c2=O)=N1` (configuration not stated) stands 49.8%; under `COc1cccc(CN2CCN(C3CCCCCC3)CC2)c1OC`, -18.1%.
On to `COc1ccc(Cl)cc1/C=C(/C#N)C(=O)Nc1cccc(Br)c1`, for which the displacement is 14.8%.
Regarding `Cc1c(Cc2ccccc2)c(=O)oc2cc(OCC(=O)N(C)C)ccc12`, the displacement is -4.4%.
Under `CC(Oc1ccccc1)C(=O)Nc1cc(C(=O)O)cc(C(=O)O)c1` (configuration not stated) stands 12.4%; under `Cc1cc(C)c(/C=N/n2cnnc2)cc1C`, -2.2%; under `COC(=O)c1ccccc1NC(=O)COc1ccc(C)cc1`, 11.6%.
The result for `O=[N+]([O-])c1ccc(Cl)c(S(=O)(=O)Nc2ccccn2)c1` reads -6.2%; that for `COc1ccc(NC(=O)c2ccc(C)c([N+](=O)[O-])c2)cc1`, 13.7%; that for `CCc1cc(=O)oc2cc(OCc3ccccc3Cl)ccc12`, -1.9%.
The result for `Cc1cc(C)c2nc(NC(=O)c3ccco3)sc2c1` reads -3.9%; that for `CC(=O)NC1=NC(=O)/C(=C\c2ccc(N(C)C)cc2)S1`, -23.2%.
For `CN(C)c1ccc(/C=C(\C#N)c2nc(C#N)c(N)c(C#N)c2N)cc1`, the displacement was -31.9%.
Under `O=S(=O)(c1ccc(Cl)cc1Cl)N1CCN(c2ccccc2)CC1` stands -7.4%; under `COc1cccc(N(CC(=O)Nc2cc(OC)ccc2OC)S(=O)(=O)c2ccccc2)c1`, -10.2%.
The result for `COc1ccc(S(=O)(=O)N2CCN(C3CCCC3)CC2)cc1` reads -12.4%; that for `O=C(NCc1ccccn1)C(=O)Nc1ccc(F)cc1`, -3.1%; that for `CCCCCOC(=O)C1=C(C)NC(=S)NC1c1ccccc1` (configuration not stated), 3.3%.
The result for `CCOC(=O)Oc1ccc2c(=O)c(Oc3ccccc3Br)coc2c1` reads 13.4%; that for `COc1ccc(CCN2C(=O)CSC2c2cccc([N+](=O)[O-])c2)cc1OC` (configuration not stated), -8.5%; that for `CC1(C)CC(NC(=O)CN2CCN(CC(=O)NC3CC(C)(C)NC(C)(C)C3)CC2)CC(C)(C)N1`, 5.2%.
On to `Cc1cccc(C2(c3cccc(C)c3)CC2C(=O)N2CCCCC2)c1` (configuration not stated), for which the displacement was -2.3%.
The result for `COc1cc(/C=C2\SC(=S)N(C)C2=O)cc(Br)c1O` reads -47.9%; that for `CC(=O)OC1(C#CCl)CCCCC1`, -8.7%; that for `O=C(Oc1ccc2c(=O)c(Oc3ccccc3Br)coc2c1)c1ccccc1`, 1.6%.
For the molecule `O=C1NC(=O)N(c2ccccc2)C(=O)/C1=C\c1cccn1-c1cccc([N+](=O)[O-])c1`, the displacement was -2.6%.
Under `COc1ccccc1NC(=O)C1=C(C)NC(=S)NC1c1ccccc1F` (configuration not stated) stands -19.5%; under `COC(=O)c1c(NC(=O)c2ccc(C)c([N+](=O)[O-])c2)sc2c1CCC2`, -2.9%.
Under `O=C(NN1C(=O)C2CCCCC2C1=O)c1ccccc1Cl` (configuration not stated) stands 4.9%.
The result for `O=C(c1ccc(Cl)cc1)N1CCN(c2ccc([N+](=O)[O-])c(N3CCOCC3)c2)CC1` reads 8.8%; that for `CC(=O)N(C)c1ccc(NC(=O)c2ccc(C(=O)Nc3ccc(N(C)C(C)=O)cc3)cc2)cc1`, 8.5%; that for `C=CCn1c(SCC(=O)NCCO)nc2sc3c(c2c1=O)CCCC3`, 4.4%.
Take `Cc1ccc(N2CC(C(=O)Nc3cccc(Cl)c3C)CC2=O)cc1` (configuration not stated): the displacement amounted to 8%.
Under `COc1ccc(CCNC(=O)c2ccccc2F)cc1OC` stands -7.4%; under `Cc1ccc(C2/C(=C(\O)c3ccccc3)C(=O)C(=O)N2CCCCCC(=O)O)cc1` (configuration not stated), -2.3%; under `CCOC(=O)c1c(C)oc2ccc(NS(=O)(=O)c3ccc4ccccc4c3)cc12`, 3.6%.
Turning to `COC(=O)C1=C(C)NC2=C(C(=O)CCC2)C1c1ccc(I)cc1` (configuration not stated), the displacement was 3.1%.
For `CC1(C)CC(=O)c2cnc(NC(=O)C3CCCC3)nc2C1`, the displacement is -5.1%.
Regarding `COc1cccc(NC(=O)C2C(c3ccccc3)C2(Cl)Cl)c1` (configuration not stated), the displacement came to 1.8%.
The result for `CC(=O)c1ccc(NC(=S)NC(NC(=O)c2ccco2)C(Cl)(Cl)Cl)cc1` (configuration not stated) reads 3%.
Under `OCCCNC(Nc1ccccc1)=C(c1ccccc1)c1ccccc1` stands -8.4%; under `O=C(Nc1ccccc1F)c1cc(-c2ccco2)nc2ccccc12`, 5.2%; under `Cc1cccc(C(=O)Nc2sc3c(c2C(=O)N2CCN(C)CC2)CCCCC3)c1`, 5.6%.
The result for `CCn1ccnc1C(O)c1ccccc1` (configuration not stated) reads 3.3%; that for `COc1ccc(C2CC(=O)C3=C(C2)Nc2ccccc2NC3c2cccc(Oc3ccccc3)c2)cc1OC` (configuration not stated), 5.3%; that for `CN(Cc1ccccc1)C1CC(=O)N(c2cc(Cl)cc(Cl)c2)C1=O` (configuration not stated), 3.8%.
For `CCOC(=O)C(=CNc1ccccc1[N+](=O)[O-])C(=O)OCC`, the displacement is -10.4%.
As to `CC1CN(S(=O)(=O)c2ccc3c(c2)C(=O)c2cc(S(=O)(=O)N4CC(C)OC(C)C4)ccc2-3)CC(C)O1` (configuration not stated), the displacement was -6%.
The result for `CC1=NN(C(=O)c2cccc(O)c2)C(O)(c2ccc(Br)cc2)C1` (configuration not stated) reads 2.8%; that for `CCOC(=O)NC12CC3CC(C1)CC(C(F)(F)F)(C3)C2`, 3.2%; that for `Cc1ccc(-c2nc3ccccc3o2)cc1NC(=O)/C=C/c1cccc([N+](=O)[O-])c1`, 74.2%.
The result for `FC1(F)C2C3OC(C4C5C=CC(O5)C34)C2C1(F)F` (configuration not stated) reads 12.8%; that for `CC(C)COc1ccc(C(=O)Nc2cc(Cl)ccc2Cl)cc1`, 13.4%.
The result for `CC1(C)CC(=O)C2=C(C1)Nc1ccccc1NC2c1ccc(-c2ccccc2[N+](=O)[O-])o1` (configuration not stated) reads -15.9%; that for `O=C(O)CSc1nnc2c(n1)[nH]c1ccccc12`, 3.1%.
On to `Cn1c2ccc(Br)cc2c2n[nH]c(=S)nc21`, for which the displacement was -8.1%.
Under `COC(=O)c1ccc(N2CCOCC2)c([N+](=O)[O-])c1` stands 9.5%.
As for `CCOc1ccc(Br)cc1C=Nc1c(C)n(C)n(-c2ccccc2)c1=O`, the displacement is -1.8%.
As for `COCCOC(=O)c1ccc(NC(=O)c2ccc(C)c([N+](=O)[O-])c2)cc1`, the displacement is -8.6%.
The result for `CSc1nsc(SC)c1NC(=O)OCc1ccccc1` reads 17.7%.
The result for `COc1ccc2c(c1)CCC/C2=N/OC(=O)c1ccc(OC)c([N+](=O)[O-])c1` reads -6.5%.
